In US5580854A, “Substrate-related peptidyl-aldehyde inhibitors of the proteolytic activity of the multicatalytic proteinase complex” (Mount Sinai School of Medicine of The City University of …, priority 1994, dated 1996):
Part of at least one peptide drawing is inferred or uncertain, most often the ends. Peptide text beside a SMILES is read from it. * marks the point of attachment. Cbz = O=C(OCc1ccccc1)*

Tests used:
[1] = biological target: T1, BrAAP component of the multicatalytic proteinase complex (MPC) (Bos taurus, UniProt Q2TBP0+Q32KL2+Q3MHN0); assay: Activity of the BrAAP component of the MPC, coupled two step reaction with aminopeptidase N; Ki by Dixon plots; type: biochemical, bovine; details: for increase in Ki toward the BrAAP component on residue replacement: relative to the parent peptidyl aldehyde
T1 construct: The MPC was isolated from frozen bovine pituitaries; tissue PelFreeze, Inc. (Rogers, Ark.) (supplier of the tissue; the enzyme was purified in house); host or cells: bovine pituitaries
From the text: (§1) The MPC was isolated from frozen bovine pituitaries, obtained from PelFreeze, Inc. (Rogers, Ark.) essentially as described in Orlowski & Michaud, Biochemistry 28:9270-9277 (1989), incorporated herein by reference.
(§2) Cbz-Gly-Pro-Ala-Leu-Gly-pAB and Cbz-Gly-Pro-Ala-Gly-Gly-pAB, where pAB is p-aminobenzoate, were used as convenient substrates for the determination of the activity of the BrAAP and SNAAP components respectively. The BrAAP component cleaves exclusively the Leu-Gly bond in Cbz-Gly-Pro-Ala-Leu-Gly-pAB, whereas the SNAAP component cleaves the Gly-Gly bond in Cbz-Gly-Pro-Ala-Gly-Gly-pAB.
(§3) A coupled two step reaction in the presence of excess aminopeptidase N (AN) was used for the determination of the BrAAP and SNAAP activities as described previously (Orlowski et al., Biochemistry 32:1563-1572 (1993)). Aminopeptidase N was purified from hog kidneys as described by Pfleiderer, Meth. Enzymol. 19:514-521 (1970) and freed from the contaminating metalloendopeptidase (EC 3.4.24.11) as previously described (Almenoff & Orlowski, Biochemistry 22:590-599 (1983)).
(§4) Inhibition constant (K1) values for the inhibitors of the present invention towards the various proteolytic activities of the MPC were determined by the method of Dixon, Biochem. J. 55:170-171 (1953). Plots of 1/v vs [I] were made at three (3) different synthetic substrate concentrations and six (6) different inhibitor concentrations [I]. Linear regression analysis gave generally correlation coefficients better than 0.99.
Inhibition was tested with and without preincubation of the MPC with the inhibitors of the invention. No increase in inhibition was observed after preincubation of the enzyme with the inhibitor for up to 30 min, indicating absence of slow binding phenomena and a rapid equilibration between enzyme and inhibitor.
Table II provides a summary of the Ki measurements for the various peptidyl aldehydes of the invention synthesized in accordance with Examples 2 and 3.

[2] = biological target: T2, multicatalytic proteinase complex (MPC) (Bos taurus, UniProt Q2TBP0+Q32KL2+Q3MHN0); assay: Histone H3 degradation by the MPC, HPLC; type: biochemical, bovine; details: for Activity, histone H3 degradation: 50 μM inhibitor, MPC 2.5 μg, 37° C., pH 8.0
T2 construct: The MPC was isolated from frozen bovine pituitaries; tissue PelFreeze, Inc. (Rogers, Ark.) (supplier of the tissue; the enzyme was purified in house); host or cells: bovine pituitaries
Experimental: as §1
(§5) In vitro protein degrading activity of the MPC, and the effects of the various inhibitors of the present invention on such activity, was determined using β-casein and histone H3 as proteolytic substrates. For determining protein degrading activity in the presence and absence of inhibitors, incubation mixtures contained Tris-HCl buffer (0.05M, pH 8.0), β-casein or histone H3, 20 mM Mg^2+ where indicated, and inhibitor dissolved in dimethylsulfoxide, where indicated. In control samples, the inhibitor was replaced by an equal volume of dimethylsulfoxide alone.
In order to measure proteolysis by the MPC, and its inhibition by the inhibitors of the invention, aliquots of the reaction mixtures were removed after various incubation times and subjected to HPLC on a Deltapak column (C4; 5 μm; 300 A; 3.9×150 mm Waters). Elution of histone H3 was carried out with a linear gradient over 30 min. established between 30 and 50% acetonitrile (v/v) in water containing 0.1% trifluoroacetic acid (v/v) at a flow rate of 1 ml/min. Elution of β-casein was carried with a linear gradient established between 10 and 45% acetonitrile (v/v) in water containing 0.1% trifluoroacetic acid (v/v). The rate of protein degradation was determined by measuring the decrease of the peak height of the protein compared with controls in which the enzyme was omitted. Alternatively degradation of the proteins was determined by integrating the area under the peak of the protein at time zero and determining the decrease of the area after incubation with the enzyme.
Histone H3 used for testing the proteolytic activity of MPC was purified from a crude histone VIII S fraction (obtained from Sigma Chemical Co. St. Louis, Mo.) by HPLC. The material was applied to a Delta Pak C4-300A semipreparative column (15 μm; 7.8 mm×300 mm) equilibrated with 30% acetonitrile (v/v) in water solution, containing 0.1% trifluoroacetic acid (v/v). Elution was carried out at a flow rate of 4 ml/min with a linear, 50 min. gradient established between 30% and 50% acetonitrile (v/v) in water, each containing 0.1% trifluoroacetic acetic acid (v/v). The main protein peak was collected and the solvent was removed under reduced pressure. The protein was dissolved in water at a concentration of 1.85 mg/ml and used for experiments. The purified histone H3 was subjected to HPLC on an analytical Deltapak column (C4; 5 μm; 300 A; 3.9×150 mm; Waters) with a linear gradient established between 30 and 50% acetonitrile (v/v) in water, containing 0.1% trifluoroacetic acid (v/v). […]

[3] = biological target: T3, SNAAP component of the multicatalytic proteinase complex (MPC) (Bos taurus, UniProt Q2TBP0+Q32KL2+Q3MHN0); assay: Activity of the SNAAP component of the MPC, coupled two step reaction with aminopeptidase N; Ki by Dixon plots; type: biochemical, bovine; details: relative to Cbz-Gly-Pro-Ala-Leu-CHO
T3 construct: The MPC was isolated from frozen bovine pituitaries; tissue PelFreeze, Inc. (Rogers, Ark.) (supplier of the tissue; the enzyme was purified in house); host or cells: bovine pituitaries
From the text: as §1, §2, §3
Inhibition constant (K1) values for the inhibitors of the present invention towards the various proteolytic activities of the MPC were determined by the method of Dixon, Biochem. J. 55:170-171 (1953). […]

[4] = biological target: T4, ChT-L component of the multicatalytic proteinase complex (MPC) (Bos taurus, UniProt Q32KL2); assay: ChT-L activity of the MPC with Cbz-Gly-Gly-Leu-pNA; Ki by Dixon plots; type: biochemical, bovine; details: relative to Cbz-Gly-Pro-Ala-Leu-CHO
T4 construct: The MPC was isolated from frozen bovine pituitaries; tissue PelFreeze, Inc. (Rogers, Ark.) (supplier of the tissue; the enzyme was purified in house); host or cells: bovine pituitaries
From the text: as §1
(§6) The substrates Cbz-Gly-Gly-Leu-pNA, Cbz-D-Ala-Leu-Arg-2NA and Cbz-Leu-Leu-Glu-2NA were used to determine the activities of the ChT-L, T-L and PGPH components of the MPC, respectively, as previously described by Wilk and Orlowski, J. Neurochem. 35:1172-1182 (1980) and J. Neurochem 40:842-849 (1983), where pNA is p-nitroaniline and 2NA is 2-naphthylamide.The rate of release of the chromogenic group (aromatic amine) was measured after diazotization (Goldbarg & Rutenburg, Cancer 11:283-291 (1958) Bratton & Marshall, J. Biol. Chem. 128:537-550 (1939)).
(§7) Reaction mixtures contained 0.4 to 0.8 mM substrate, Tris-HCl buffer (0.05M; pH 8.0) and enzyme (1 to 3 μg) in a final volume of 0.25 ml. Incubations were at 37° C. The reactions were stopped by addition of an equal volume of 10% trichloroacetic acid and diazotization was then carried out.
as §4, with “Linear regression analysis gave generally correlation coefficients better than 0.99.” left out

[5] = biological target: T5, PGPH component of the multicatalytic proteinase complex (MPC) (Bos taurus, UniProt Q3MHN0); assay: PGPH activity of the MPC with Cbz-Leu-Leu-Glu-2NA; IC50; type: biochemical, bovine; set-up: key to PGPH component, inhibition: ni: no inhibition observed
T5 construct: The MPC was isolated from frozen bovine pituitaries; tissue PelFreeze, Inc. (Rogers, Ark.) (supplier of the tissue; the enzyme was purified in house); host or cells: bovine pituitaries
From the text: as §1, §6, §7
Due to the sigmoidal relationship between reaction rate and substrate concentration for the PGPH activity, only IC50 values (inhibitor concentration giving 50% inhibition) at a substrate concentration of 0.64 mM were determined. […]

T-L activity of the MPC = biological target: T6, T-L activity of the MPC (Bos taurus, UniProt Q2TBP0); assay: T-L activity of the MPC with Cbz-D-Ala-Leu-Arg-2NA; type: biochemical, bovine; details: data not shown
T6 construct: The MPC was isolated from frozen bovine pituitaries; tissue PelFreeze, Inc. (Rogers, Ark.) (supplier of the tissue; the enzyme was purified in house); host or cells: bovine pituitaries

[6] = biological target: T2, multicatalytic proteinase complex (MPC); assay: β-casein degradation by the MPC, HPLC; type: biochemical, bovine; details: 50 μM inhibitor, MPC 5.0 μg, 37° C., pH 8.0
Experimental: as §1, §5
In order to measure proteolysis by the MPC, and its inhibition by the inhibitors of the invention, aliquots of the reaction mixtures were removed after various incubation times and subjected to HPLC on a Deltapak column (C4; 5 μm; 300 A; 3.9×150 mm Waters). […] The rate of protein degradation was determined by measuring the decrease of the peak height of the protein compared with controls in which the enzyme was omitted. Alternatively degradation of the proteins was determined by integrating the area under the peak of the protein at time zero and determining the decrease of the area after incubation with the enzyme. […]

[7] = tested on: rat aortic smooth muscle cells; assay: 3H-thymidine incorporation in serum-stimulated cells; type: cell-based; details: various concentrations, relative to wells not treated (FIG. 3)
[8] = tested on: rat aortic smooth muscle cells; assay: Cell proliferation, number of cells per well; type: cell-based; details: concentrations of 100-200 μM (FIG. 4)
[9] = tested on: Synchronized rat aortic smooth muscle cells; assay: Flow cytometric cell cycle analysis; type: cell-based; details: inhibitor treated versus untreated cultures; data not shown
A549 cells = assay: Intracellular protein degradation, release of 35S-methionine as trichloroacetic acid-soluble products; type: cell-based, human
[10] = biological target: T2, multicatalytic proteinase complex (MPC); assay: Inhibition of the MPC, component not specified (peptidyl alcohol; preincubation test); type: biochemical, bovine; details: concentration of up to 500 μM; data not shown

## CC(C)C[C@@H](C=O)NC(=O)[C@H](C)NC(=O)[C@@H]1CCCN1C(=O)CNC(=O)OCc1ccccc1 [Cbz-Gly-Pro-Ala-Leu-CHO] (Cbz-GPAL-aldehyde)
[1]
  increase in Ki toward the BrAAP component on residue replacement: almost one order of magnitude
[2]; 200 μM inhibitor, 15 min incubation, histone H3 55 μg, MPC 10 μg
  degradation of histone H3: almost completely prevented degradation of histone H3

## C[C@H](NC(=O)[C@@H]1CCCN1C(=O)CNC(=O)OCc1ccccc1)C(=O)N[C@H](C=O)Cc1ccccc1 [Cbz-Gly-Pro-Ala-Phe-CHO] (Cbz-GPAF-aldehyde)
[1]
  inhibition of the BrAAP component: only weakly inhibit
  increase in Ki toward the BrAAP component on residue replacement: more than 20 fold
[3]
  increase in Ki toward the SNAAP component on residue replacement: more than 20 fold
[4]
  increase in Ki toward the ChT-L activity on residue replacement: four-fold increase
[5]; [I] 200 μM
  PGPH component, inhibition: ni

## CC(C)C[C@@H](C=O)NC(=O)[C@H](Cc1ccccc1)NC(=O)[C@@H]1CCCN1C(=O)CNC(=O)OCc1ccccc1 [Cbz-Gly-Pro-Phe-Leu-CHO] (Cbz-GPFL-aldehyde)
[5]
  inhibition of the PGPH activity: more inhibitory
T-L activity of the MPC
  inhibitory effect on the T-L activity: Neither Cbz-Gly-Pro-Phe-Leu-CHO, nor any of the other novel inhibitors of the invention listed in Table II had any inhibitory effect
[6]; β-casein 160 μg/ml, no Mg2+
  Activity, β-casein degradation: 670 μg/h/mgMPC
[6]; β-casein 1000 μg/ml, 20 mM Mg2+
  Activity, β-casein degradation: 2,960 μg/h/mgMPC
[2]; histone H3 185 μg/ml
  Activity, histone H3 degradation: 1,000 μg/h/mgMPC
[2]; histone H3 370 μg/ml
  Activity, histone H3 degradation: 2,370 μg/h/mgMPC
[2]; histone H3 740 μg/ml
  Activity, histone H3 degradation: 2,020 μg/h/mgMPC
[7]
  3H-thymidine incorporation: significantly reduced
[8]
  cell proliferation, number of cells per well: significantly inhibited cell proliferation
[9]
  cell cycle stage distribution: increase in the proportion of cells in the G2 /M phases
A549 cells; 200 μM, 30 minutes chase (FIG. 5)
  degradation of short-lived intracellular proteins: significantly reduced degradation of short-lived proteins

## CC(C)C[C@@H](CO)NC(=O)[C@H](Cc1ccccc1)NC(=O)[C@@H]1CCCN1C(=O)CNC(=O)OCc1ccccc1 [Cbz-Gly-Pro-Phe-Leu-OH]
[10]
  inhibition of the MPC by the peptidyl alcohol: no inhibition was observed
[7]
  3H-thymidine incorporation: little effect
[8]
  cell proliferation, number of cells per well: minimal effects
A549 cells; concentrations up to 200 μM, data not shown
  intracellular protein degradation: did not inhibit intracellular protein degradation

## CC(C)[C@@H](C=O)NC(=O)[C@H](Cc1ccccc1)NC(=O)[C@@H]1CCCN1C(=O)CNC(=O)OCc1ccccc1 [Cbz-Gly-Pro-Phe-Val-CHO] (Cbz-GPFV-aldehyde)
[1]
  increase in Ki toward the BrAAP component on residue replacement: thirty-fold increase

## CC(C)C[C@@H](C=O)NC(=O)[C@H](C)NC(=O)CNC(=O)[C@@H]1CCCN1C(=O)OCc1ccccc1 [Cbz-Pro-Gly-Ala-Leu-CHO] (Cbz-PGAL-aldehyde)
[1]
  inhibition of the BrAAP component: only weakly inhibit
[3]
  increase in Ki toward the SNAAP component on residue replacement: two-fold increase
[4]
  decrease in Ki for the ChT-L activity on transposition of Pro and Gly: ~30 fold
